# The supplement of paper PMC8728848
# Some of the results follow.
# Tests used:
# Assay in all cases: glycan array binding signal (z-score within array); higher = stronger binding
# Conditions in all cases: glycan notation: IUPAC condensed, linker removed
# Fuc(a1-2)Gal = molecular target: Fuc(a1-2)Gal
# Summary of the method: (§1)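 Negative Z-scores can be read as non-binding. The Z-score is calculated within each array and then averaged across arrays of one protein sequence at different concentrations or buffers and across linkers. Arrays, 3228 in all, were curated from the Consortium for Functional Glycomics database and kept only where the protein sequence was available.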
# Fuc(a1-2)Gal(b1-3)GalNAc = molecular target: Fuc(a1-2)Gal(b1-3)GalNAc
# Summary of the method: as §1
# [1] = molecular target: Fuc(a1-2)Gal(b1-3)GalNAc(b1-3)Gal
# Summary of the method: as §1
# [2] = molecular target: Fuc(a1-2)Gal(b1-3)GalNAc(b1-3)Gal(a1-4)Gal(b1-4)Glc
# Summary of the method: as §1
# [3] = molecular target: Fuc(a1-2)Gal(b1-3)GalNAc(b1-4)[Neu5Ac(a2-3)]Gal(b1-4)Glc
# Summary of the method: as §1
# Fuc(a1-2)Gal(b1-3)GlcNAc = molecular target: Fuc(a1-2)Gal(b1-3)GlcNAc
# Summary of the method: as §1
# [4] = molecular target: Fuc(a1-2)Gal(b1-3)GlcNAc(b1-3)Gal(b1-4)Glc
# Summary of the method: as §1
# [5] = molecular target: Fuc(a1-2)Gal(b1-3)[Fuc(a1-4)]GlcNAc
# Summary of the method: as §1
# Fuc(a1-2)Gal(b1-4)Glc = molecular target: Fuc(a1-2)Gal(b1-4)Glc
# Summary of the method: as §1
# Fuc(a1-2)Gal(b1-4)Glc6S = molecular target: Fuc(a1-2)Gal(b1-4)Glc6S
# Summary of the method: as §1
# Fuc(a1-2)Gal(b1-4)GlcNAc = molecular target: Fuc(a1-2)Gal(b1-4)GlcNAc
# Summary of the method: as §1
# [6] = molecular target: Fuc(a1-2)Gal(b1-4)GlcNAc(b1-3)Gal(b1-4)GlcNAc
# Summary of the method: as §1
# [7] = molecular target: Fuc(a1-2)Gal(b1-4)GlcNAc(b1-3)Gal(b1-4)GlcNAc(b1-3)Gal(b1-4)GlcNAc
# Summary of the method: as §1
# [8] = molecular target: Fuc(a1-2)Gal(b1-4)GlcNAc6S
# Summary of the method: as §1
# [9] = molecular target: Fuc(a1-2)Gal(b1-4)[Fuc(a1-3)]GlcNAc
# Summary of the method: as §1
# [10] = molecular target: Fuc(a1-2)Gal(b1-4)[Fuc(a1-3)]GlcNAc(b1-3)Gal(b1-4)[Fuc(a1-3)]GlcNAc
# Summary of the method: as §1
# [11] = molecular target: Fuc(a1-2)Gal(b1-4)[Fuc(a1-3)]GlcNAc(b1-3)Gal(b1-4)[Fuc(a1-3)]GlcNAc(b1-3)Gal(b1-4)[Fuc(a1-3)]GlcNAc
# Summary of the method: as §1
# Fuc(a1-2)Gal6S(b1-4)Glc = molecular target: Fuc(a1-2)Gal6S(b1-4)Glc
# Summary of the method: as §1
# [12] = molecular target: Fuc(a1-2)Gal6S(b1-4)Glc6S
# Summary of the method: as §1
# [13] = molecular target: Fuc(a1-2)Gal6S(b1-4)GlcNAc
# Summary of the method: as §1
# Fuc(a1-2)[Gal(a1-3)]Gal = molecular target: Fuc(a1-2)[Gal(a1-3)]Gal
# Summary of the method: as §1
# [14] = molecular target: Fuc(a1-2)[Gal(a1-3)]Gal(b1-3)GlcNAc
# Summary of the method: as §1
# [15] = molecular target: Fuc(a1-2)[Gal(a1-3)]Gal(b1-4)Glc
# Summary of the method: as §1
# [16] = molecular target: Fuc(a1-2)[Gal(a1-3)]Gal(b1-4)GlcNAc
# Summary of the method: as §1
# [17] = molecular target: Fuc(a1-2)[Gal(a1-3)]Gal(b1-4)[Fuc(a1-3)]GlcNAc
# Summary of the method: as §1
# [18] = molecular target: Fuc(a1-2)[Gal(a1-4)]Gal(b1-4)GlcNAc
# Summary of the method: as §1
# [19] = molecular target: Fuc(a1-2)[GalNAc(a1-3)]Gal
# Summary of the method: as §1
# [20] = molecular target: Fuc(a1-2)[GalNAc(a1-3)]Gal(b1-3)GlcNAc
# Summary of the method: as §1
# [21] = molecular target: Fuc(a1-2)[GalNAc(a1-3)]Gal(b1-4)Glc
# Summary of the method: as §1
# [22] = molecular target: Fuc(a1-2)[GalNAc(a1-3)]Gal(b1-4)GlcNAc
# Summary of the method: as §1
binder,measurement,setting,value
"SLR2P3F12 (Tachypleus tridentatus), TAL2_TACTR (protein) MEKGTPPTHDSDNWMGRAKKIGNGGWNQFQFLFFDPNGYLYAVSKDKLYKASPPQSDTDNWIARATEIGSGGWSGFKSLFFHPNGYLYAVHGQRLYKALPPVSNQD",glycan array binding signal (z-score),Fuc(a1-2)Gal,-0.16
same,glycan array binding signal (z-score),Fuc(a1-2)Gal(b1-3)GalNAc,-0.372
same,glycan array binding signal (z-score),[1],0.673
same,glycan array binding signal (z-score),[2],-0.287
same,glycan array binding signal (z-score),[3],-0.195
same,glycan array binding signal (z-score),Fuc(a1-2)Gal(b1-3)GlcNAc,-0.047
same,glycan array binding signal (z-score),[4],-0.057
same,glycan array binding signal (z-score),[5],-0.226
same,glycan array binding signal (z-score),Fuc(a1-2)Gal(b1-4)Glc,0.802
same,glycan array binding signal (z-score),Fuc(a1-2)Gal(b1-4)Glc6S,-0.273
same,glycan array binding signal (z-score),Fuc(a1-2)Gal(b1-4)GlcNAc,-0.323
same,glycan array binding signal (z-score),[6],-0.352
same,glycan array binding signal (z-score),[7],-0.221
same,glycan array binding signal (z-score),[8],-0.447
same,glycan array binding signal (z-score),[9],-0.181
same,glycan array binding signal (z-score),[10],1.09
same,glycan array binding signal (z-score),[11],-0.179
same,glycan array binding signal (z-score),Fuc(a1-2)Gal6S(b1-4)Glc,-0.39
same,glycan array binding signal (z-score),[12],-0.343
same,glycan array binding signal (z-score),[13],0.264
same,glycan array binding signal (z-score),Fuc(a1-2)[Gal(a1-3)]Gal,-0.372
same,glycan array binding signal (z-score),[14],-0.248
same,glycan array binding signal (z-score),[15],-0.321
same,glycan array binding signal (z-score),[16],-0.417
same,glycan array binding signal (z-score),[17],-0.185
same,glycan array binding signal (z-score),[18],0.185
same,glycan array binding signal (z-score),[19],-0.104
same,glycan array binding signal (z-score),[20],0.556
same,glycan array binding signal (z-score),[21],-0.365
same,glycan array binding signal (z-score),[22],-0.352
